In all, about 310,000 compounds went through this assay and about 2,200 (0.71%) showed an effect of 50% or more. Effects have a minus sign here. Some of the results follow.
Biological target: human ether-à-go-go-related gene (hERG) potassium channel (human, UniProt Q12809)
Experiment: primary screen, population patch clamp on CHO cells stably expressing hERG

human ether-à-go-go-related gene (hERG) potassium channel, sequence (Q12809 whole entry, looked up): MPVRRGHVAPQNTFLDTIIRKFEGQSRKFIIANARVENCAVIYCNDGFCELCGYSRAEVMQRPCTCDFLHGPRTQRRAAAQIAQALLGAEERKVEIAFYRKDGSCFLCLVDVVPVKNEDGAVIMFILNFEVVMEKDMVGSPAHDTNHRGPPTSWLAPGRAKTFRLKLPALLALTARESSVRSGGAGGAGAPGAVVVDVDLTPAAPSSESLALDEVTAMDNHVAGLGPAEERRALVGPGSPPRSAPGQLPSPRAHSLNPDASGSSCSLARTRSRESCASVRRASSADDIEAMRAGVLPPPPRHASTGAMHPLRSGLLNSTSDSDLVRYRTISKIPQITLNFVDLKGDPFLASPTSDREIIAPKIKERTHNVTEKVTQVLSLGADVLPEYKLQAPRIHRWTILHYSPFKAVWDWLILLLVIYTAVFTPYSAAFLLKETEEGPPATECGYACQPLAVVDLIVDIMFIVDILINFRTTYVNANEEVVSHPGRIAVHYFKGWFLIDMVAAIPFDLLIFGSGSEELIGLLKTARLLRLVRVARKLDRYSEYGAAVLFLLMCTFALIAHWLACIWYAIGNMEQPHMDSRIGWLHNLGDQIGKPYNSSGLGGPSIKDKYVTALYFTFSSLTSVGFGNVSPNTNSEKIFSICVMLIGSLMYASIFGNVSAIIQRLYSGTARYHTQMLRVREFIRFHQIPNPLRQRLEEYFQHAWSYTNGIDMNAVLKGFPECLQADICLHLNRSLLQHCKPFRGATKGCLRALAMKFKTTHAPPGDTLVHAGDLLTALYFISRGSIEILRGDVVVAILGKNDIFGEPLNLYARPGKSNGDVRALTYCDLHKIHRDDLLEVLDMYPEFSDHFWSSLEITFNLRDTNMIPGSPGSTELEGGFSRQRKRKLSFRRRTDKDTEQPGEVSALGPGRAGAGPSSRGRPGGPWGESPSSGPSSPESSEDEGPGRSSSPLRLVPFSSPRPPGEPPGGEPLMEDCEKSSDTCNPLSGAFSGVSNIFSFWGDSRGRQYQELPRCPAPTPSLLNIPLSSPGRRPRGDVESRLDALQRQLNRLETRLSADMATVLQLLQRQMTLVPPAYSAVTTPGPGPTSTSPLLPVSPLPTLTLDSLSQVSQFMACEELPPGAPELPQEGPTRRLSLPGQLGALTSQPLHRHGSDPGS

Point of comparison: O=C(COC(=O)c1cc(=O)[nH]c2ccccc12)c1cccs1, “hERG current change (%, negative = inhibition) at 1uM” value 15.1%. Against it:
- Cc1cc2c(C)c(C)c(=O)[nH]c2cc1N — lower, 12.2%
- O=C(c1cccs1)N1CCN(S(=O)(=O)c2ccc(F)cc2)CC1 — lower, 1.13%
- O=C(Nc1ccc2oc(-c3ccncc3)nc2c1)c1ccccc1 — lower, 10%
- C/C(=N/NS(=O)(=O)c1ccc(C)c(C)c1)c1c[nH]c2ccccc12 — higher, 21.7%
- CCc1nnc(N/N=C/c2ccc(-c3ccc([N+](=O)[O-])cc3)o2)n1N — lower, 14.5%
- CCOC(=O)C1(Cc2cccc(Cl)c2)CCCN(C(=O)CCNC(C)=O)C1 (stereo not shown) — higher, 15.5%
- O=C(COC(=O)c1cc2ccccc2oc1=O)Nc1cccc(Br)c1 — higher, 20.4%
- CCOc1c2ccoc2nc2c(OC)c(OC)ccc12 — lower, 3.61%
- Cc1ccccc1NC(=S)NCCc1ccccc1 — lower, 7.94%
- CCOC(=O)c1sc(=S)n(C)c1N — lower, 0.652%
- Cc1nnc(Nc2ccc(Cl)cc2)s1 — lower, 11.2%
- COc1ccc2[nH]c(C)c(C(=O)CN3CCOCC3)c2c1 — lower, 10.4%
- Cn1cc(S(=O)(=O)N2CCN(Cc3ccccc3)CC2)c(=O)n(C)c1=O — lower, -1.48%
- O=C(NCCc1ccncc1)Nc1ccc(Cl)c(Cl)c1 — lower, -9.28%
- N#Cc1c(NCc2ccccc2)ccnc1Cl — lower, 4.74%
- CCCc1cc(=O)[nH]c(SCC(=O)c2c(N)n(CC(C)C)c(=O)n(C)c2=O)n1 — lower, 0.555%
- NC(=O)c1ccc(-n2nnnc2SCC(=O)c2ccc(O)c(O)c2)cc1 — lower, 8.71%
- c1ccc2c3c(c(CN4CCCC4)cc2c1)COC3 — lower, 7.13%
- C/C(N)=C(/C#N)C(=O)CSc1cc(C)c2cc(C)cc(C)c2n1 — lower, -1.21%
- COC(=O)/C=C/C(=O)N1CCN(c2ccccc2C)CC1 — lower, 11.3%
- COc1cc(/C=N/Nc2ccc([N+](=O)[O-])cc2S(=O)(=O)N2CCOCC2)cc(OC)c1OC — lower, 10.2%
- Cc1ccccc1-c1nc2sc(-c3ccccc3)cc2c(=O)o1 — higher, 20.9%
- Cc1ccc(-n2nc(CC#N)c(C#N)c2N)cc1 — lower, 6.71%
- Cc1ccnn1CC(=O)N/N=C/c1cccs1 — lower, -1.87%
- CC(OC(=O)c1ccc(Cl)nc1)C(=O)Nc1ccc(S(=O)(=O)N2CCCC2)cc1 (stereo not shown) — lower, -7.44%
- CCC1(C)Cc2c(sc3nnn(Cc4ccccc4Cl)c(=O)c23)CO1 (stereo not shown) — higher, 18.3%
- CCOC(=O)C1(CCOc2ccccc2)CCN(Cc2nccn2CC)CC1 — lower, -5.37%
- Cc1c(Cl)cccc1NC(=O)c1cccnc1 — lower, 13.6%
- CC(CN1CCCCC1)OC(=O)C(C)(c1ccccc1)c1ccccc1.Cl (stereo not shown) — lower, -0.115%
- COC(=O)C1=C(C)N(c2ccc(C)c(C)c2)/C(=C/c2ccc(O)cc2)C1=O — lower, 10.4%
- COc1cccc(NC(=O)C2CCN(S(=O)(=O)c3ccc4c(c3)OCCO4)CC2)c1 — higher, 20.4%
- O=C(CCn1ccc2cc(S(=O)(=O)N3CCCC3)ccc21)NCc1ccccc1 — lower, 12.7%
- Cc1cc(SCC(=O)N(C)c2c(N)n(Cc3ccccc3)c(=O)[nH]c2=O)nc2ccccc12 — lower, 13.6%
- Cc1ccc(NC(=O)N2Cc3ccccc3CC2C(=O)NC(C)(C)C)cc1 (stereo not shown) — lower, 6.94%
- O=C(N/C(=C/c1cccc(Br)c1)c1nc(=S)[nH][nH]1)c1ccccc1 — lower, 6.77%
- O=C(O)CN=C(NS(=O)(=O)c1ccc(Cl)cc1)c1ccc(F)cc1 — lower, 12.5%
- Cc1ccc(C)c(S(=O)(=O)N2CC(=O)N(CCc3ccccc3)C(=O)C2)c1 — lower, 5.37%
- Cc1ccc(CC2CC(=O)N(c3nc4ccccc4s3)C2=O)cc1 (stereo not shown) — lower, 14.5%
- COc1ccc(OC)c(NC(=O)Cn2cc(C=O)c3ccccc32)c1 — higher, 18.4%
- COc1cccc(NC(=O)CCCNC(=O)Cn2cnc3sc(C)c(C)c3c2=O)c1 — higher, 19.5%
- CCc1cccc(C)c1N(C(=O)Cn1c(CO)nc2ccccc21)C(C)COC (stereo not shown) — lower, 10.7%
- CCOc1ccc(C2C(C(=O)c3ccco3)=C(O)C(=O)N2CCN2CCOCC2)cc1OCC (stereo not shown) — higher, 15.3%
- O=c1[nH]c2ccccc2nc1Cc1ccc(Cl)cc1 — lower, 14.6%
- Cc1c(Cl)cccc1NC(=O)CSc1nc2c(c(=O)[nH]1)CCCC2 — lower, 12.7%
- CCCc1ccc(-c2ccc(-c3noc(-c4ccncc4)n3)cc2)nc1 — lower, 9.72%

From PMC4336329 (PLoS ONE, 2015)
